# PubChem BioAssay AID720707 (National Center for Advancing Translational Sciences (NCATS), 2013)
# Among all 360,000 compounds or so, about 270 (0.075%) were called active. The inconclusive results got no clear call from the source; some entries with a clear call stand among them for comparison. Calls follow the shape of the dose curve; as a rule, active = well fitted activation curve with a large enough effect; inconclusive = small, poorly fitted or top-dose-only effect; inactive = no such curve, though single readings can be large or run the other way. No potency is given beside an inconclusive call; the fits are too rough.
# Molecular target: Rap guanine nucleotide exchange factor 3 (Homo sapiens) (UniProt O95398)
# Sequence of UniProt O95398 (O95398 whole entry, looked up): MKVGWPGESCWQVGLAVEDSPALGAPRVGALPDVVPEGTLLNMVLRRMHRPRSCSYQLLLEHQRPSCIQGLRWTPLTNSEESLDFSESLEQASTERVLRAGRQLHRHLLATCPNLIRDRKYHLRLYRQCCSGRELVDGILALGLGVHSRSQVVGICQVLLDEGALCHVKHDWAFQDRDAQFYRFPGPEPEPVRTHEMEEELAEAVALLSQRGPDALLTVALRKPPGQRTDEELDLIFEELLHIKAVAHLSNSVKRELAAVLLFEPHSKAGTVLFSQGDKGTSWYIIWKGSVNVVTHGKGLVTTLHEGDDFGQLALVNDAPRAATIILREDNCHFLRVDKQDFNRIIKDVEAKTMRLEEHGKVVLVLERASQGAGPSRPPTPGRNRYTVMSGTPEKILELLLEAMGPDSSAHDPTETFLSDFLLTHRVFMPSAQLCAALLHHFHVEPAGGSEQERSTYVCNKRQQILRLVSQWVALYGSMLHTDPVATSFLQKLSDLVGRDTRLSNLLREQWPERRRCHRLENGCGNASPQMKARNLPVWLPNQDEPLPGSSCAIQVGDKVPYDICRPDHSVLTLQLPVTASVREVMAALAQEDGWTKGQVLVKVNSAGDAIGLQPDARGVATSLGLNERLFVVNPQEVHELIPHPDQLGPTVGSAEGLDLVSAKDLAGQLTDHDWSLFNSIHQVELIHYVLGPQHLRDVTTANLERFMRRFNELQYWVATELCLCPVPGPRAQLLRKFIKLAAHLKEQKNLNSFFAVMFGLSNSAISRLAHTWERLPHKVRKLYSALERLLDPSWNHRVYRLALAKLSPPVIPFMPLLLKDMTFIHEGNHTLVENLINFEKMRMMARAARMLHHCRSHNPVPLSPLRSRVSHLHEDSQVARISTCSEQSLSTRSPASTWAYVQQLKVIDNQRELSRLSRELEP
# Experiment: qHTS for Agonist of cAMP-regulated guanine nucleotide exchange factor 3 (EPAC1): primary screen; also: nearly all actives have a fitted effect of over 60% in size
# Settings: biochemical assay; activation: at 154 µM (top of the series), 100% = response to 6.5 mM cAMP
# Procedure, shortened: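 Fluorescent GDP-exchange assay: 100 nM EPAC1 with 250 nM Rap1B preloaded with BODIPY-GDP and 50 uM GDP; compounds tested as concentration series, 5 min at room temperature, then read every 5 min for 30 min (ex 480/em 540 nm); normalized to 6.5 mM cAMP.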
# Potency is read from the fitted curve at half-maximal effect; tags tell the direction and shape of the fitted curve.
SMILES,activation,Potency
O=C(NCc1ccc(Cl)cc1)c1ccc(OCC2CCCO2)cc1 (stereo not given),inactive: -1.71%,
COc1ccc(CNc2cccnc2Cl)cc1,inactive: 10.4%,
COc1ccc(OC)c(-c2c3cc(O)c(=O)cc-3oc3cc(O)c(O)cc23)c1,,"inconclusive [activator, single point]"
CN(C)/C=C/C=C1C(=O)CCCC1=O,inactive: 11.5%,
Cc1nn(-c2ccc(F)cc2)c(C)c1NS(=O)(=O)c1ccc2ccccc2c1,,"inconclusive [activator, partial curve]"
COc1ccccc1C(=O)NC(=O)COC(=O)C1CC1,,"inconclusive [activator, partial curve]"
O=C(CCc1ccccc1)NC(c1cccs1)c1cc(Cl)c2cccnc2c1O (stereo not given),,"inconclusive [activator, partial curve]"
Cc1cccc(C(=O)Nc2ccccc2C(=O)OCc2c(C)noc2C)c1,,"inconclusive [activator, single point]"
Nc1ccc2cc3[nH]c4cc(N)ccc4c3nc2c1,,active: 89.1 µM
CCOc1ccc(Oc2ccccc2NC(=O)CN2C(=O)NC3(CCCC3)C2=O)cc1,,active: 28.2 µM
Nc1ncnc2c1nc(Br)n2[C@@H]1O[C@@H]2COP(=O)(O)O[C@H]2[C@H]1O,,active: 11.2 µM
COc1ccc(/C=N/Nc2ccc([N+](=O)[O-])cc2S(=O)(=O)N2CCN(C)CC2)cc1,,"inconclusive [activator, single point]"
O=S(=O)(O)c1cccc2c(N=Nc3ccc(O)c4ncccc34)cccc12,,"inconclusive [activator, partial curve]"
CC(Oc1ccc(S(=O)(=O)N2CCCC2)cc1[N+](=O)[O-])C(=O)NC(C)c1ccccc1 (stereo not given),,"inconclusive [activator, partial curve, poor fit]"
COc1cc(NC(=O)CSCC(=O)Nc2cccc(C(F)(F)F)c2)c(Cl)cc1Cl,,"inconclusive [activator, single point]"
CCCCCOC(=O)c1[nH]c2c(c1C)C(=O)CC(c1ccco1)C2 (stereo not given),inactive: -4.8%,
O=C(CNC(=O)c1cccc(Cl)c1)NCCCSc1ccccc1,,"inconclusive [activator, single point]"
CCN(CC)Cc1c(O)ccc2c1O/C(=C\C=C\c1ccccc1)C2=O,,"inconclusive [activator, partial curve]"
COc1ccc2c(CC(=O)N3CCc4ccccc43)coc2c1,inactive: 4.02%,
CCNc1cccc2c1C(=O)N(C)C2=O,,"inconclusive [activator, partial curve]"
CCOc1ccccc1C(=O)N1c2ccccc2Sc2ccccc21,,"inconclusive [activator, partial curve]"
Cc1ccc(Cn2c(=N)c(C(=O)NC3CCCC3)cc3c(=O)n4ccccc4nc32)cc1,,"inconclusive [activator, single point]"
Cc1nc2ccccc2c(=O)n1/N=C/c1ccccc1O,inactive: 9.85%,
COc1ccccc1CCc1nnc(CCC(=O)N(C)Cc2cccc3ncccc23)o1,,"inconclusive [activator, single point]"
COc1ccccc1OCc1cc(C(=O)N2CC3C[C@@H]4CC2C[C@H](C3)C4)no1,inactive: 3.35%,

SMILES,activation,Potency
CC(C)n1cc(/C=C/c2cc[n+](C)cc2)c2ccccc21,,active: 100 µM
CCCC1C2CN(C(C)C)CC=C2C(C#N)=C(N)C1(C#N)C#N (stereo not given),,active: 63.1 µM
Cc1ccc(C(=O)N/C(=C\c2ccc(Cl)cc2)C(=O)NCCN2CCOCC2)cc1,inactive: 0.658%,
CSC1=NSC2=NC(=O)/C(=C/c3coc4ccccc4c3=O)C(=N)N12,,active: 100 µM
O=C(c1cccc(N2C(=O)c3ccccc3C2=O)c1)N1CCCCCC1,inactive: -13.5%,
CN1/C(=C\C=C2/SC(=S)N(CC(=O)O)C2=O)C(C)(C)c2ccccc21,,active: 63.1 µM
Cc1ccc(NC(=O)C2C3CC4OC(=O)C2C4C3)cc1Cl (stereo not given),inactive: -17.2%,
O=C1C(=O)C(Cl)=C(Cl)C(Cl)=C1Cl,inactive: 11.4%,
CCCCOc1cccc(-c2nnc(N)s2)c1,,"inconclusive [activator, single point]"
COc1cccc(/C(O)=C/c2nc3ccc(C(=O)NCCc4cccc(C)c4)cc3[nH]c2=O)c1,,active: 89.1 µM
CCC(=O)Nc1ccc(F)c(Cl)c1,inactive: 1.26%,
Cc1cc2c(cc(C(=O)OCC(=O)NC3CCCCC3)n2C)o1,inactive: -7.54%,
Cc1c(C(=O)N2CCN(c3ncccn3)CC2)oc2c(Cl)cccc12,,"inconclusive [activator, full curve]"
CN1CCC/C1=C/C=C1\SC(=S)NC1=O,,active: 63.1 µM
CCOc1ccc2oc(C(=O)N(C)CC(=O)Nc3ccc(OCC)c(OCC)c3)c(C)c2c1,,active: 56.2 µM
Cc1ccc(S(=O)(=O)N2[C@H](CC(=O)c3ccc(Cl)c(Cl)c3)OC[C@@H]2C(C)C)cc1,inactive: 5.71%,
CC(=O)Nc1ccc(Nc2c3c4c(cccc4n(C)c2=O)C(=O)c2ccccc2-3)cc1,,"inconclusive [activator, partial curve]"
O=C(NC(=S)/C(=C1\CCCCCN1)[N+](=O)[O-])c1ccccc1,inactive: -7.4%,
CC(=O)CCc1oc2ccc(C)cc2c1Cc1ccccc1,inactive: 8.33%,
Cn1ncc(Cl)c1C(=O)N1CCN(c2ccc(Cl)c(Cl)c2)CC1,,"inconclusive [activator, partial curve]"
CCOC(=O)C1=C(C)N=c2s/c(=C/c3ccc(OCC(=O)O)c(OC)c3)c(=O)n2C1c1ccc(Cl)cc1 (stereo not given),,"inconclusive [activator, partial curve]"
Nc1ccc2nc3c(=O)n(CCc4ccccc4)c(=O)[nH]c3nc2c1,,active: 112 µM
O=C(Cc1ccsc1)N1CCN(S(=O)(=O)c2cc(C(F)(F)F)cc(C(F)(F)F)c2)CC1,,"inconclusive [activator, single point]"
O=C(CCc1ccc(S(=O)(=O)N2CCOCC2)cc1)Nc1nc(COc2ccccc2)cs1,inactive: 19.5%,
O=[S@]1Oc2ccccc2-c2ccccc21,inactive: 4.31%,
